Our source for the EC50 values is patent US20250368738A1 (PHILOGEN S P A, published 2025).

The assay deals with T1, human CD28-ECD (extracellular domain) recombinant fragment containing a C-terminal Avi tag, His6 tag and Fc … (human, site specifically biotinylated using BirA (Avi tag) in the ELISA of Example 2.1).
T1 construct: also called CD28-Fc; CD28-Fc fusion protein
In words: titration ELISA, biotinylated CD28-ECD fusion protein on streptavidin wells, anti-myc detection.

B1: AE2P antibody in single chain Fv (scFv) format (scFv)
scFv: [omitted - about 100 residues]RYIAFDYWGQGTLVTVSSGGGGSGGGGSGGGGDIQMTQSPSSLSASVGDRVTITCRASQSISSYLNWYQQKPGKAPKLLIYAASSLQSGVPSRFSGSGSGTDFTLTISSLQPEDFATYYCQQGGMPPDTFGQGTKVEIK
notes: The tested scFv was detected through a myc tag; also called AE2P scFv; scFv (AE2P)
Regarding B1, the EC50 was approximately 31 nM.
